These results are taken from the BET-seq Pho4 binding data (Le et al. 2018).

This is one part of the list. These are noisy estimates, calculated here from bound and input reads.

The target in this assay is T1, Pho4 (S. cerevisiae) (UniProt P07270).
T1 sequence: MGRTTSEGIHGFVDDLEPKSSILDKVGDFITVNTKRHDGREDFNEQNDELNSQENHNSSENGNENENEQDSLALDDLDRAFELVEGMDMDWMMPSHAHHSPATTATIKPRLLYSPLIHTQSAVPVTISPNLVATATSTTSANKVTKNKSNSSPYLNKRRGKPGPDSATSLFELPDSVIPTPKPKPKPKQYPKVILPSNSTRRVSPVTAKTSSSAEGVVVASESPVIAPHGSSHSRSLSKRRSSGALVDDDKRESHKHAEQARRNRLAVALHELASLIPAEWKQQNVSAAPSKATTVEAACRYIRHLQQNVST
As to the kind of experiment: relative binding free energy (BET-seq); higher = weaker binding. To be noted: reference: library average.
As for ATGGGCACGTGTATGG, the “relative binding free energy” value was -0.05 kcal/mol. Regarding TGAGACACGTGCTGTT, the “relative binding free energy” value was -0.07 kcal/mol. Turning to TTCTTCACGTGATGTG, the “relative binding free energy” value was 0.3 kcal/mol. Consider GAAGGCACGTGATAGT, for which the “relative binding free energy” value came to 0.03 kcal/mol. With GTTTACACGTGTAATG, the “relative binding free energy” value came to 0.18 kcal/mol. The figure for ACGTGCACGTGCTTGG is -0.16 kcal/mol. For TGTTTCACGTGTACTC, the “relative binding free energy” value turned out to be 0.28 kcal/mol. As for GTAAGCACGTGGTAGT, the “relative binding free energy” value was -0.22 kcal/mol. Turning to ATTTTCACGTGATTAT, the “relative binding free energy” value came out at 0.3 kcal/mol.

For TTGAGCACGTGCGTAT, the “relative binding free energy” value was -0.11 kcal/mol. As to TAAGTCACGTGATGTT, the “relative binding free energy” value was found to be 0.3 kcal/mol. To CCAGGCACGTGTTTGG belongs -0.05 kcal/mol; to CGGGTCACGTGGGCTT, 0.01 kcal/mol.

On to GATGTCACGTGGGTAC, for which the “relative binding free energy” value was 0.15 kcal/mol. Consider CGATGCACGTGTTGAT, for which the “relative binding free energy” value is -0.03 kcal/mol. As for CTAGGCACGTGCATGT, the “relative binding free energy” value is -0.01 kcal/mol. For AGGTTCACGTGGGTGT, the “relative binding free energy” value is 0.22 kcal/mol. ATGAACACGTGTTATA: the “relative binding free energy” value was 0.07 kcal/mol.

With CGGTTCACGTGTAGCT, the “relative binding free energy” value was determined as 0.33 kcal/mol.

In the case of TTGGTCACGTGTCCGG, the “relative binding free energy” value was determined as 0.2 kcal/mol. On to TGCATCACGTGCTTGT, for which the “relative binding free energy” value is 0.2 kcal/mol. Consider GGGGCCACGTGTTTTG, for which the “relative binding free energy” value was 0.02 kcal/mol.

With ACGCGCACGTGGAGTG, the “relative binding free energy” value is -0.14 kcal/mol.

With TTCAACACGTGGGTAT, the “relative binding free energy” value was -0.18 kcal/mol. Regarding TAGGTCACGTGAGACT, the “relative binding free energy” value is 0.34 kcal/mol. For the sequence TATTACACGTGCTAGG, the “relative binding free energy” value worked out at 0.13 kcal/mol.

TTTGTCACGTGATCGT: the “relative binding free energy” value was 0.3 kcal/mol. For TGTGACACGTGGTTCG, the “relative binding free energy” value is 0.05 kcal/mol.

Consider CGTGTCACGTGATGGG, for which the “relative binding free energy” value was 0.1 kcal/mol.

GGGCCCACGTGAGGTG: the “relative binding free energy” value turned out to be 0.09 kcal/mol. ACGTACACGTGTTGGG: the “relative binding free energy” value turned out to be 0.06 kcal/mol. For the sequence ATGGACACGTGGAGAT, the “relative binding free energy” value came out at 0.12 kcal/mol. For the sequence TCTTTCACGTGTGTTG, the “relative binding free energy” value is 0.27 kcal/mol. Take TCTGGCACGTGAGAGG: the “relative binding free energy” value came to 0.05 kcal/mol. The figure for ACTTTCACGTGAGTTA is 0.45 kcal/mol. As to GGAGTCACGTGTAGGA, the “relative binding free energy” value was determined as 0.12 kcal/mol.

For GTTGGCACGTGTACAG, the “relative binding free energy” value was -0.07 kcal/mol.

With TTGTACACGTGGGAGT, the “relative binding free energy” value stood at 0.04 kcal/mol. To TGGTACACGTGTCGTA belongs -0.04 kcal/mol.

As for GTTGTCACGTGAGATC, the “relative binding free energy” value is 0.32 kcal/mol. The figure for TTGACCACGTGTGGAT is 0.07 kcal/mol. Take TAGGGCACGTGTTTAG: the “relative binding free energy” value is -0.17 kcal/mol. For the sequence GTTTACACGTGTAGTC, the “relative binding free energy” value worked out at 0.16 kcal/mol.

In the case of GTAAGCACGTGTAGTG, the “relative binding free energy” value is -0.06 kcal/mol.

GGTGGCACGTGCAAGT: the “relative binding free energy” value is -0.13 kcal/mol. With ATCGTCACGTGGAGTG, the “relative binding free energy” value came out at 0.11 kcal/mol. To TACTGCACGTGGTAGT belongs -0.13 kcal/mol. In the case of TGGGCCACGTGTAAGT, the “relative binding free energy” value was -0.02 kcal/mol. Turning to TGGTTCACGTGTTATG, the “relative binding free energy” value came to 0.26 kcal/mol. To TGATTCACGTGTGCCT belongs 0.26 kcal/mol. For TTTAGCACGTGGCACG, the “relative binding free energy” value was -0.09 kcal/mol. With TAGGGCACGTGGAGTA, the “relative binding free energy” value is -0.18 kcal/mol. ACATTCACGTGTGGGG: the “relative binding free energy” value was found to be 0.32 kcal/mol. Turning to TCATGCACGTGGTATT, the “relative binding free energy” value was -0.12 kcal/mol.

For TGCATCACGTGTAAGG, the “relative binding free energy” value stood at 0.23 kcal/mol. As to AGAGGCACGTGGATGA, the “relative binding free energy” value was -0.06 kcal/mol. As for GGGGTCACGTGTGTCG, the “relative binding free energy” value stood at 0.21 kcal/mol.

As for AGAAACACGTGGTGTT, the “relative binding free energy” value was -0.04 kcal/mol. To GGACGCACGTGGTGGG belongs -0.18 kcal/mol; to TTTTCCACGTGTGGTA, 0.09 kcal/mol; to TTCTACACGTGTTTAT, 0.17 kcal/mol.

Regarding TTTATCACGTGATGTT, the “relative binding free energy” value was 0.21 kcal/mol.

Consider ATATTCACGTGGTTGT, for which the “relative binding free energy” value was 0.33 kcal/mol. To AAGGGCACGTGGTAGA belongs -0.27 kcal/mol; to GTTTGCACGTGTATAA, 0.19 kcal/mol; to TGAGGCACGTGTGGAT, 0.03 kcal/mol. In the case of GTAAGCACGTGCGAGG, the “relative binding free energy” value is -0.14 kcal/mol. Consider GTTTGCACGTGATTGG, for which the “relative binding free energy” value worked out at 0.18 kcal/mol.

TCGGTCACGTGAGATG: the “relative binding free energy” value amounted to 0.4 kcal/mol. For the sequence TGGTCCACGTGCGTGT, the “relative binding free energy” value amounted to 0.02 kcal/mol. On to ATGGACACGTGTTGTT, for which the “relative binding free energy” value was 0.1 kcal/mol.

Turning to GGGAGCACGTGTTGGC, the “relative binding free energy” value was -0.08 kcal/mol. GTGCTCACGTGGGCGT: the “relative binding free energy” value came out at 0.06 kcal/mol. For the sequence GCGAGCACGTGGTTGT, the “relative binding free energy” value was -0.14 kcal/mol.

GGCGGCACGTGTGGCC: the “relative binding free energy” value was -0.02 kcal/mol. In the case of GTTCTCACGTGTGGGT, the “relative binding free energy” value came out at 0.16 kcal/mol. For the sequence GTGTCCACGTGTTATA, the “relative binding free energy” value was 0.09 kcal/mol.

Regarding AAAGGCACGTGCTTTG, the “relative binding free energy” value was -0.06 kcal/mol. Take TATTTCACGTGTTAGG: the “relative binding free energy” value is 0.37 kcal/mol. With TGGGGCACGTGTTCTG, the “relative binding free energy” value is -0.14 kcal/mol. Turning to TGGGGCACGTGGTGGC, the “relative binding free energy” value is -0.12 kcal/mol. In the case of GTTTACACGTGGGGCT, the “relative binding free energy” value was -0.1 kcal/mol. In the case of GCTAGCACGTGGAGGG, the “relative binding free energy” value was -0.07 kcal/mol. For TTGCTCACGTGAAGGT, the “relative binding free energy” value worked out at 0.21 kcal/mol.

Take AACGGCACGTGTGATT: the “relative binding free energy” value was found to be 0.16 kcal/mol. Turning to GTTAGCACGTGATCGT, the “relative binding free energy” value turned out to be 0.14 kcal/mol. On to GTAATCACGTGTATAG, for which the “relative binding free energy” value is 0.21 kcal/mol.

With GGGGTCACGTGGTTTG, the “relative binding free energy” value is 0.21 kcal/mol. For TTGAGCACGTGTCTTT, the “relative binding free energy” value is -0.2 kcal/mol. Regarding TATGCCACGTGACGGG, the “relative binding free energy” value was -0.01 kcal/mol. For the sequence ATATACACGTGGGTTA, the “relative binding free energy” value is -0.15 kcal/mol. For the sequence GTATGCACGTGCGTGA, the “relative binding free energy” value was -0.02 kcal/mol.

Take TGGATCACGTGTACAG: the “relative binding free energy” value amounted to 0.25 kcal/mol. Turning to GGGGCCACGTGGCTGG, the “relative binding free energy” value is -0.02 kcal/mol. Take AGTGGCACGTGGATGC: the “relative binding free energy” value is -0.07 kcal/mol. With TTAGACACGTGGAGGT, the “relative binding free energy” value was determined as 0.01 kcal/mol.

TTTATCACGTGAGGGC: the “relative binding free energy” value worked out at 0.23 kcal/mol.

Turning to TTTATCACGTGAGTAC, the “relative binding free energy” value is 0.38 kcal/mol. As for GTAAGCACGTGTTAGG, the “relative binding free energy” value was 0.04 kcal/mol.

Take AGTAGCACGTGGTGCA: the “relative binding free energy” value is -0.31 kcal/mol.

Take TTAAGCACGTGGGGGT: the “relative binding free energy” value was -0.23 kcal/mol. For ACGGACACGTGGGTAT, the “relative binding free energy” value was -0.06 kcal/mol. Turning to AGAAGCACGTGTAAGG, the “relative binding free energy” value amounted to 0.04 kcal/mol. Regarding GGTAGCACGTGTGTAT, the “relative binding free energy” value was 0.03 kcal/mol.

Turning to AGGGGCACGTGGAAGC, the “relative binding free energy” value was -0.15 kcal/mol. The figure for TGGAGCACGTGAGTTA is 0.14 kcal/mol; for TTAGACACGTGCGTGT it is -0.16 kcal/mol. Take TTAGGCACGTGCTGCA: the “relative binding free energy” value is -0.16 kcal/mol. To GATTTCACGTGTTGAC belongs 0.3 kcal/mol; to GGAAGCACGTGGGTAG, -0.23 kcal/mol; to GTTTACACGTGTGCGG, 0.24 kcal/mol. Consider ATCGCCACGTGTTTGG, for which the “relative binding free energy” value was -0.01 kcal/mol. For the sequence AGGGACACGTGATGTA, the “relative binding free energy” value was 0.16 kcal/mol. In the case of CTTGTCACGTGTGTCT, the “relative binding free energy” value was determined as 0.13 kcal/mol. In the case of ATCCTCACGTGTGGTT, the “relative binding free energy” value worked out at 0.3 kcal/mol.
